# According to patent publication US20200362026A1 (INSTITUTE FOR RESEARCH IN BIOMEDICINE, published 2020):
# B1: Ts2GC2c trispecific antibody (antibody, human IgG1, kappa)
# heavy: EVQLVESGGDLVKAGGSLRLSCAVSGLSFSSSGMNWVRQAPGKGLEWISSISGSQNYKYYADSVKGRFVVSRDNARNFLYLQMDSLRAEDTAVYFCVGGFPYWLPPSDFSGFHVWGQGTTVTVSSGGGGSGGGGSGGGGSSYVLTQPPSVSVAPGQTASLTCGGTNIGSKSVHWYQQKAGQAPVLVVYADNDRPSGVPERFSGSNSGNTATLTISRVEAEDESDYFCQVWDGNTDHVVFGGGTKLTVLGGGGSGVQLVQSGGGLVQPGGSLRLSCAASGFTVSTNYMSWVRQAPGKGLEWVSILYAGGVTRYADSVKTRFTISRDNSKNTLFLQMNALSAEDTAIYYCAKHYDSGYSTIDHFDSWGQGTLVTVSSASTKGPSVFPLAPSSKSTSGGTAALGCLVKDYFPEPVTVSWNSGALTSGVHTFPAVLQSSGLYSLSSVVTVPSSSLGTQTYICNVNHKPSNTKVDKRV[human IgG1 Fc not spelt out]
# light: QLQLVQSGTEVKKPGASVKVSCKSSGYVFTSYYLVWVRQAPGQGLEWMATISPGDVNTSYEQRFQGRVTVTTDASTNTVDMELRSLRSEDTAVYYCARGPRSKPPYLYFALDVWGQGTAVTVSSGGGGSGGGGSGGGGSEIVLTQSPGTLSLSPGETAILSCRASQSVSSSLLAWYQQKPGQAPRLLIYGASNRATGIRGRFSGSGSGTDFTLTISRLEPEDFVLYYCQHYGSRVTFGQGTKLEIKGGGGSDIQMTQSPDSVAVSLGERATINCKSSQSVFYTSKNKNYLAWFQQKPGQPPKLLIYWASTRESGVPDRFSGSGSGTDFTLTISSLRPEDVAVYYCQQYYSTPFTFGPGTKVDIKRTVAAPSVFIFPPSDEQLKSGTASVVCLLNNFYPREAKVQWKVDNALQSGNSQESVTEQDSKDSTYSLSSTLTLSKADYEKHKVYACEVTHQGLSSPVTKSFNRGEC
# notes: Trispecific hexavalent IgG1, construct type Ts2; specificities GCE536 + GCA7 + GCB59
# B2: Bs2GC1d bispecific antibody (bispecific antibody, human IgG1, kappa)
# heavy: GVQLVQSGGGLVQPGGSLRLSCAASGFTVSTNYMSWVRQAPGKGLEWVSILYAGGVTRYADSVKTRFTISRDNSKNTLFLQMNALSAEDTAIYYCAKHYDSGYSTIDHFDSWGQGTLVTVSSASTKGPSVFPLAPSSKSTSGGTAALGCLVKDYFPEPVTVSWNSGALTSGVHTFPAVLQSSGLYSLSSVVTVPSSSLGTQTYICNVNHKPSNTKVDKRV[human IgG1 Fc not spelt out]
# light: B1 light
# notes: Bispecific tetravalent IgG1, construct type Bs2; specificities GCE536 + GCA7
# B3: Bs1GC3a bispecific antibody (bispecific antibody, human IgG1, kappa)
# heavy: B1 heavy
# light: DIQMTQSPDSVAVSLGERATINCKSSQSVFYTSKNKNYLAWFQQKPGQPPKLLIYWASTRESGVPDRFSGSGSGTDFTLTISSLRPEDVAVYYCQQYYSTPFTFGPGTKVDIKRTVAAPSVFIFPPSDEQLKSGTASVVCLLNNFYPREAKVQWKVDNALQSGNSQESVTEQDSKDSTYSLSSTLTLSKADYEKHKVYACEVTHQGLSSPVTKSFNRGEC
# notes: Bispecific tetravalent IgG1, construct type Bs1; specificities GCA7 + GCB59; also called BsGC3a
# B4: Ts3GC2e trispecific antibody (antibody, human IgG1, kappa)
# heavy: EVQLVESGGDLVKAGGSLRLSCAVSGLSFSSSGMNWVRQAPGKGLEWISSISGSQNYKYYADSVKGRFVVSRDNARNFLYLQMDSLRAEDTAVYFCVGGFPYWLPPSDFSGFHVWGQGTTVTVSSGGGGSGGGGSGGGGSSYVLTQPPSVSVAPGQTASLTCGGTNIGSKSVHWYQQKAGQAPVLVVYADNDRPSGVPERFSGSNSGNTATLTISRVEAEDESDYFCQVWDGNTDHVVFGGGTKLTVLGGGGSGVQLVQSGGGLVQPGGSLRLSCAASGFTVSTNYMSWVRQAPGKGLEWVSILYAGGVTRYADSVKTRFTISRDNSKNTLFLQMNALSAEDTAIYYCAKHYDSGYSTIDHFDSWGQGTLVTVSSASTKGPSVFPLAPSSKSTSGGTAALGCLVKDYFPEPVTVSWNSGALTSGVHTFPAVLQSSGLYSLSSVVTVPSSSLGTQTYICNVNHKPSNTKVDKRV[human IgG1 Fc not spelt out]GGGGSQLQLVQSGTEVKKPGASVKVSCKSSGYVFTSYYLVWVRQAPGQGLEWMATISPGDVNTSYEQRFQGRVTVTTDASTNTVDMELRSLRSEDTAVYYCARGPRSKPPYLYFALDVWGQGTAVTVSSGGGGSGGGGSGGGGSEIVLTQSPGTLSLSPGETAILSCRASQSVSSSLLAWYQQKPGQAPRLLIYGASNRATGIRGRFSGSGSGTDFTLTISRLEPEDFVLYYCQHYGSRVTFGQGTKLEIK
# light: B3 light
# notes: Trispecific hexavalent IgG1, construct type Ts3; specificities GCE536 + GCA7 + GCB59
# B5: Bs3GC1b bispecific antibody (bispecific antibody, human IgG1, kappa)
# heavy: GVQLVQSGGGLVQPGGSLRLSCAASGFTVSTNYMSWVRQAPGKGLEWVSILYAGGVTRYADSVKTRFTISRDNSKNTLFLQMNALSAEDTAIYYCAKHYDSGYSTIDHFDSWGQGTLVTVSSASTKGPSVFPLAPSSKSTSGGTAALGCLVKDYFPEPVTVSWNSGALTSGVHTFPAVLQSSGLYSLSSVVTVPSSSLGTQTYICNVNHKPSNTKVDKRV[human IgG1 Fc not spelt out]GGGGSQLQLVQSGTEVKKPGASVKVSCKSSGYVFTSYYLVWVRQAPGQGLEWMATISPGDVNTSYEQRFQGRVTVTTDASTNTVDMELRSLRSEDTAVYYCARGPRSKPPYLYFALDVWGQGTAVTVSSGGGGSGGGGSGGGGSEIVLTQSPGTLSLSPGETAILSCRASQSVSSSLLAWYQQKPGQAPRLLIYGASNRATGIRGRFSGSGSGTDFTLTISRLEPEDFVLYYCQHYGSRVTFGQGTKLEIK
# light: B3 light
# notes: Bispecific tetravalent IgG1, construct type Bs3; specificities GCE536 + GCA7
# Biological target: T1, human GM-CSF (granulocyte macrophage-colony stimulating factor) (human, UniProt P04141)
# T1 construct: Soluble cytokine used in ELISA, SPR, TF-1 bioassay and immune complex formation; also called recombinant GM-CSF
# T1 sequence (P04141 18-144 limits assumed): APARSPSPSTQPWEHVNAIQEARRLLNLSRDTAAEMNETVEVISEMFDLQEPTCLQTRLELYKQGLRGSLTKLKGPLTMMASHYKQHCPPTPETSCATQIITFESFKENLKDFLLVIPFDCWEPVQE
# Test: ELISA on GM-CSF
row,EC50 [ng/mL],Binder
1,20.7,B1
2,22.6,B2
3,46.8,B3
4,40.7,B4
5,71.6,B5

# Biological target: T1, human GM-CSF (granulocyte …)
# Test: cell-based or functional assay
"IC90 less stringent conditions (50 pg/ml GM-CSF, 1,000 TF-1/well) [ng/mL]","IC90 more stringent conditions (500 pg/ml GM-CSF, 1,000 TF-1/well) [ng/mL]","IC90 stringent conditions (50 pg/ml GM-CSF, 10,000 TF-1/well) [ng/mL]","IC90 very stringent conditions (500 pg/ml GM-CSF, 10,000 TF-1/well) [ng/mL]",Binder
0.546,4.28,0.69,5.86,B1
3.08,9.6,6.3,15.9,B2
0.744,4.64,0.737,13.3,B3
0.296,3.29,0.272,3.68,B4
0.555,4.37,0.712,5.93,B5
